Laboratory results reported in PubChem BioAssay AID330 (DTP/NCI, 2004).
Several values for one entry are separate records, joined by “and”; a condition that tells them apart may be missing. Equal entries are not always repeated. The source gives many values for each of these; only a part stands here. Inconclusive results and toxic doses are left out.

Tested on: P388 leukemia ip, CD2F1 mice, survival T/C
Assay: NCI In Vivo Anticancer Drug Screen. Data for tumor model P388 Leukemia (intraperitoneal) in CD2F1 (CDF1) mice
Conditions: endpoint: median survival time, higher = longer survival
Experimental: The antitumor activity of compounds was measured in mice bearing transplantable tumors. Survival or tumor size were measured and the results are expressed as the measurement made in the treated group (T) divided by the measurement made in the vehicle treated control group (C). The tumor model used in this assay is P388 Leukemia (intraperitoneal) in CD2F1 (CDF1) mice

## COc1cccc2c1C(=O)c1c(O)c3c(c(O)c1C2=O)C[C@@](O)(C(=O)CO)C[C@@H]3OC1CC(N)C(O)C(C)O1 (some centres not stated)
dose: 0.1 mg/kg/injection, schedule: Q01DX009 (ip), vehicle: water
  T/C: 185 % of control
dose: 0.1 mg/kg/injection, schedule: Q04DX003 (ip), vehicle: saline
  T/C: 101 % of control
dose: 0.12 mg/kg/injection, schedule: Q01DX009 (ip), vehicle: water
  T/C: 180 % of control
dose: 0.2 mg/kg/injection, schedule: Q01DX009 (ip), vehicle: water
  T/C: 182 % of control
dose: 0.23 mg/kg/injection, schedule: Q01DX009 (ip), vehicle: saline
  T/C: 168 % of control
dose: 0.3 mg/kg/injection, schedule: Q04DX003 (ip), vehicle: saline
  T/C: 104 % of control
dose: 0.38 mg/kg/injection, schedule: Q01DX009 (ip), vehicle: saline
  T/C: 171 % of control
dose: 0.39 mg/kg/injection, schedule: Q01DX009 (ip), vehicle: water
  T/C: 204 % of control
dose: 0.4 mg/kg/injection, schedule: Q01DX009 (ip), vehicle: water
  T/C: 180 % of control
dose: 0.43 mg/kg/injection, schedule: Q01DX009 (ip), vehicle: saline
  T/C: 172 % of control and 166 % of control
dose: 0.44 mg/kg/injection, schedule: Q04DX003 (ip), vehicle: water
  T/C: 165 % of control
dose: 0.5 mg/kg/injection, schedule: Q01DX005 (ip), vehicle: water
  T/C: 164 % of control and 166 % of control and 181 % of control
dose: 0.5 mg/kg/injection, schedule: Q04DX003 (ip), vehicle: saline
  T/C: 110 % of control
dose: 0.52 mg/kg/injection, schedule: Q01DX009 (ip), vehicle: saline
  T/C: 202 % of control
dose: 0.63 mg/kg/injection, schedule: Q04DX003 (ip), vehicle: water
  T/C: 108 % of control and 113 % of control
dose: 0.66 mg/kg/injection, schedule: Q04DX003 (ip), vehicle: saline
  T/C: 172 % of control
dose: 0.66 mg/kg/injection, schedule: Q04DX003 (ip), vehicle: water
  T/C: 182 % of control
dose: 0.72 mg/kg/injection, schedule: Q01DX009 (ip), vehicle: saline
  T/C: 169 % of control and 191 % of control
dose: 0.75 mg/kg/injection, schedule: Q01DX009 (ip), vehicle: saline
  T/C: 205 % of control
dose: 0.78 mg/kg/injection, schedule: Q01DX009 (ip), vehicle: water
  T/C: 201 % of control
dose: 0.8 mg/kg/injection, schedule: Q01DX009 (ip), vehicle: water
  T/C: 162 % of control
dose: 0.8 mg/kg/injection, schedule: Q04DX003 (ip), vehicle: saline
  T/C: 164 % of control
dose: 0.86 mg/kg/injection, schedule: Q01DX009 (ip), vehicle: saline
  T/C: 209 % of control
dose: 1.0 mg/kg/injection, schedule: Q01DX005 (ip), vehicle: water
  T/C: 188 % of control and 194 % of control (2×)
dose: 1.0 mg/kg/injection, schedule: Q02DX002 (ip), vehicle: saline
  T/C: 170 % of control
dose: 1.0 mg/kg/injection, schedule: Q04DX003 (ip), vehicle: saline
  T/C: 110 % of control
dose: 1.12 mg/kg/injection, schedule: Q04DX002 (ip), vehicle: saline
  T/C: 176 % of control
dose: 1.2 mg/kg/injection, schedule: Q01DX009 (ip), vehicle: saline
  T/C: 178 % of control and 248 % of control
dose: 1.25 mg/kg/injection, schedule: Q01DX001 (ip), vehicle: water
  T/C: 180 % of control
dose: 1.25 mg/kg/injection, schedule: Q04DX003 (ip), vehicle: saline
  T/C: 190 % of control
dose: 1.25 mg/kg/injection, schedule: Q04DX003 (ip), vehicle: water
  T/C: 119 % of control and 123 % of control
dose: 1.3 mg/kg/injection, schedule: Q01DX001 (ip), vehicle: water
  T/C: 174 % of control
dose: 1.3 mg/kg/injection, schedule: Q01DX004 (ip), vehicle: saline
  T/C: 173 % of control
dose: 1.44 mg/kg/injection, schedule: Q01DX009 (ip), vehicle: saline
  T/C: 248 % of control
dose: 1.5 mg/kg/injection, schedule: Q01DX009 (ip), vehicle: saline
  T/C: 320 % of control
dose: 1.56 mg/kg/injection, schedule: Q01DX009 (ip), vehicle: water
  T/C: 103 % of control
dose: 1.57 mg/kg/injection, schedule: Q01DX009 (ip), vehicle: water
  T/C: 242 % of control
dose: 1.6 mg/kg/injection, schedule: Q01DX004 (ip), vehicle: saline
  T/C: 205 % of control
dose: 1.6 mg/kg/injection, schedule: Q01DX009 (ip), vehicle: water
  T/C: 225 % of control
dose: 1.6 mg/kg/injection, schedule: Q04DX003 (ip), vehicle: saline
  T/C: 199 % of control
dose: 1.6 mg/kg/injection, schedule: Q04DX003 (ip), vehicle: water
  T/C: 167 % of control
dose: 1.62 mg/kg/injection, schedule: Q04DX002 (ip), vehicle: saline
  T/C: 169 % of control and 189 % of control
dose: 1.62 mg/kg/injection, schedule: Q04DX003 (ip), vehicle: water
  T/C: 177 % of control
dose: 1.73 mg/kg/injection, schedule: Q04DX002 (ip), vehicle: saline
  T/C: 176 % of control and 178 % of control
dose: 1.8 mg/kg/injection, schedule: Q01DX001 (ip), vehicle: water
  T/C: 174 % of control and 167 % of control
dose: 1.8 mg/kg/injection, schedule: Q04DX003 (ip), vehicle: saline
  T/C: 190 % of control
dose: 2.0 mg/kg/injection, schedule: Q01DX005 (ip), vehicle: saline
  T/C: 169 % of control
dose: 2.0 mg/kg/injection, schedule: Q01DX005 (ip), vehicle: water
  T/C: 174 % of control and 221 % of control and 232 % of control
dose: 2.0 mg/kg/injection, schedule: Q01DX009 (ip), vehicle: saline
  T/C: 192 % of control
dose: 2.0 mg/kg/injection, schedule: Q02DX002 (ip), vehicle: saline
  T/C: 188 % of control
dose: 2.0 mg/kg/injection, schedule: Q04DX003 (ip), vehicle: saline
  T/C: 115 % of control
dose: 2.1 mg/kg/injection, schedule: Q01DX004 (ip), vehicle: saline
  T/C: 196 % of control
dose: 2.16 mg/kg/injection, schedule: Q04DX002 (ip), vehicle: saline
  T/C: 175 % of control
dose: 2.16 mg/kg/injection, schedule: Q04DX002 (ip), vehicle: water
  T/C: 184 % of control
dose: 2.25 mg/kg/injection, schedule: Q04DX003 (ip), vehicle: saline
  T/C: 174 % of control
dose: 2.4 mg/kg/injection, schedule: Q01DX001 (ip), vehicle: water
  T/C: 174 % of control and 201 % of control
dose: 2.4 mg/kg/injection, schedule: Q01DX009 (ip), vehicle: saline
  T/C: 252 % of control
dose: 2.4 mg/kg/injection, schedule: Q04DX003 (ip), vehicle: saline
  T/C: 186 % of control
dose: 2.4 mg/kg/injection, schedule: Q04DX003 (ip), vehicle: water
  T/C: 191 % of control
dose: 2.5 mg/kg/injection, schedule: Q01DX001 (ip), vehicle: water
  T/C: 160 % of control
dose: 2.5 mg/kg/injection, schedule: Q04DX003 (ip), vehicle: saline
  T/C: 192 % of control
dose: 2.5 mg/kg/injection, schedule: Q04DX003 (ip), vehicle: water
  T/C: 122 % of control
dose: 2.59 mg/kg/injection, schedule: Q01DX001 (ip), vehicle: saline
  T/C: 178 % of control
dose: 2.6 mg/kg/injection, schedule: Q01DX004 (ip), vehicle: saline
  T/C: 164 % of control and 198 % of control
dose: 2.7 mg/kg/injection, schedule: Q04DX002 (ip), vehicle: saline
  T/C: 176 % of control and 179 % of control and 196 % of control
dose: 2.7 mg/kg/injection, schedule: Q04DX003 (ip), vehicle: water
  T/C: 210 % of control
dose: 2.88 mg/kg/injection, schedule: Q04DX002 (ip), vehicle: saline
  T/C: 181 % of control and 195 % of control
